# Laboratory results from PubChem BioAssay (Tox21).
# “And” between values parts separate entries of the source, which are not always exact repeats. Identical values can stand only once. Inconclusive results, whose numbers are uncertain, are shown with a selection of clear calls. Potencies beside an inconclusive call are fits to weak or partial responses and may not hold up. The source made the active and inactive calls. Calls follow the shape of the dose curve; as a rule, active = well fitted activation curve with a large enough effect in the signal ratio in the repeat runs (not every such curve was filed as active); inconclusive = weak or mixed curves; inactive = flat fitted curve, though single readings scatter; the % refers to the signal ratio. Peptide text beside a SMILES is read from it.
# Assay: qHTS assay to identify small molecule agonists of the hypoxia (HIF-1) signaling pathway (AID 1224846)
# Settings: HRE-bla ME-180 cells, beta-lactamase ratio, 17 h; activation: at 76.8 µM (top of the series) unless noted
# From the text: U.S. Tox21 Program National Center for Advancing Translational Sciences [NCATS] NIH Chemical Genomics Center [NCGC] U.S. Environmental Protection Agency [EPA] National Institutes of Environmental Health Sciences [NIEHS] National Toxicology Program [NTP] U.S. Food and Drug Administration [FDA] Tox21 Assay Overview: Hypoxia-inducible factor-1 (HIF-1) is the major hypoxia-regulated transcription factor that controls cellular responses to low oxygen concentration. HIF-1 is composed of two subunits: hypoxia responsive HIF-1-alpha and constitutively expressed HIF-1-beta, which is also known as aryl hydrocarbon receptor nuclear translocator. During hypoxic conditions, HIF-1-alpha heterodimerizes with HIF-1-beta and translocates into the nucleus where the HIF-1 complex binds to the hypoxia-response element (HRE) and activates expression of target genes such as VEGF (vascular endothelial growth factor). The HIF-1 pathway is essential to normal growth and development, and is involved in the pathophysiology of cancer, inflammation, and ischemia. Using a beta-lactamase reporter-gene under control of the hypoxia response element, a cell-based assay [CellSensor(TM) HRE-bla ME-180 from Life Technologies, Carlsbad, CA] was used to measure hypoxia-induced signaling. Tox21 10K library compounds were measured for their ability to induce the reporter gene activity.
# Tox21 Assay Protocol Summary: HRE-bla ME-180 cells were dispensed at 2,000 cells per well in 6 uL of assay medium containing 0.5% dialyzed FBS into black wall/clear-bottom 1536-well plates using a Multidrop Combi (Thermo Scientific, Waltham, MA) dispenser. After the assay plates were incubated at 37C and 5% CO2 for 5 hrs, 23 nL of compounds dissolved in DMSO, positive controls or DMSO only was transferred to each well of the assay plate using a Pintool station (Kalypsys, San Diego, CA). The assay plates were incubated at 37C and 5% CO2 for 17 hrs. One uL of LiveBLAzerTM B/G FRET substrate (CCF4-AM) (Life Technologies) was added to each well using a Flying Reagent Dispenser (Aurora Discovery, San Diego, CA).
# % is scaled to controls: 0 for no effect and ±100 for the full control effect; potency is read from the fitted curve at half-maximal effect; tags tell the direction and shape of the fitted curve or compound fluorescence and quenching.
SMILES,Potency,activation
CC1=C(/C=C/C(C)=C/C=C/C(C)=C/C=O)C(C)(C)CCC1,"inconclusive: 34.5 µM [falling, partial curve]",
C=CCc1cc(S(=O)(=O)c2ccc(O)c(CC=C)c2)ccc1O,inconclusive: 54.9 µM,
CC(C)(C)c1ccc(C(O)CCCN2CCC(C(O)(c3ccccc3)c3ccccc3)CC2)cc1 (stereo not given),inconclusive: 26.8 µM,
NC1(c2ccc(-c3nc4ccn5c(=O)[nH]nc5c4cc3-c3ccccc3)cc2)CCC1,"inconclusive: 6.01 µM [falling, partial curve, poor fit]",
CCCCCCCCCCCCN1CCCC1=O,inconclusive: 54.9 µM,
Cc1cc(Br)ccc1NC(=O)CCl,"inconclusive: 49 µM [falling, partial curve]",
[Cl][Bi]([Cl])([c]1ccccc1)([c]1ccccc1)[c]1ccccc1,"inconclusive: 7.71 µM [falling, full curve]",
Cc1ccc(-n2[nH]c(C)c(N=Nc3cccc(-c4cccc(C(=O)O)c4)c3O)c2=O)cc1C,"inconclusive: 21.3 µM [falling, partial curve]",
Oc1cc2ccccc2c2ccccc12,inconclusive: 11 µM [full curve],
CC(C)(c1ccccc1)c1ccc(Nc2ccc(C(C)(C)c3ccccc3)cc2)cc1,"inconclusive: 43.6 µM [falling, partial curve] and inconclusive: 49 µM [falling, partial curve]",
COc1ccc(CN2CCN(C(c3ccc(F)cc3)c3ccc(F)cc3)CC2)c(OC)c1OC,inconclusive: 23.9 µM [partial curve],
CCCCCCCCCCn1cc[n+](CCCCCCCCCC)c1C,inconclusive: 55 µM,
CCCOc1sc(C(=O)N2CCC(c3cc(CN)ccc3F)CC2)c(C)c1Br,inconclusive: 50.4 µM,
Oc1ccc2cc(SSc3ccc4cc(O)ccc4c3)ccc2c1,"inconclusive: 61.6 µM [falling, single point]",
CCc1cc(SCc2sc(-c3ccc(C(F)(F)F)cc3)nc2CN2CCN(c3ccc(OC)cc3)CC2)ccc1OCC(=O)O,"inconclusive: 49 µM [falling, partial curve]",
O=C(Nc1ccccc1SSc1ccccc1NC(=O)c1ccccc1)c1ccccc1,"inconclusive: 17.5 µM [falling, full curve] and inconclusive: 24.5 µM [falling, full curve]",
Clc1ccc(C(Cn2ccnc2)OCc2ccsc2Cl)c(Cl)c1 (stereo not given),inconclusive: 23.9 µM [partial curve],
CCC1(c2cnc[nH]2)Cc2ccccc2C1,inconclusive: 19 µM [partial curve],
O=C(O)CN(CC(=O)O)CC(=O)O,inactive,
O=C(COc1ccc(Cl)cc1)N1CCN(Cc2ccc3c(c2)OCO3)CC1,"inconclusive: 26.8 µM [falling, partial curve]",

SMILES,Potency,activation
CC(C)(C)c1cc(/C=C2\SC(=N)NC2=O)cc(C(C)(C)C)c1O,"inconclusive: 49 µM [falling, partial curve]",
Oc1c(Cl)cc(Cl)c2cccnc12,"inconclusive: 0.848 µM [falling, full curve]",
CCCCCCCCCCCCCCCCC(C(=O)O)C(O)(CC(=O)O)C(=O)O (stereo not given),"inconclusive: 26.8 µM [falling, single point]",
COc1ccc2nc(S(=O)Cc3ncc(C)c(OC)c3C)[nH]c2c1 (stereo not given),inconclusive: 54.3 µM [single point],
CCCCOCCOCCOCCO,inactive,
Oc1ccc(C2(c3ccc(O)cc3)CC3CC2C2CCCC32)cc1 (stereo not given),"inconclusive: 37.4 µM [falling, partial curve]",
CCCCCCC(C)OC(=O)COc1nc(F)c(Cl)c(N)c1Cl (stereo not given),,inactive: 1.71%
O=C1c2c(O)ccc([N+](=O)[O-])c2C(=O)c2c([N+](=O)[O-])ccc(O)c21,"inconclusive: 5.44 µM [falling, full curve]",
CN(C)C(=O)C1(N2CCCCC2)CCN(CC[C@@]2(c3ccc(Cl)c(Cl)c3)CN(C(=O)c3ccccc3)CCO2)CC1,inconclusive: 51.3 µM [single point],
O=C(O)c1ccccc1C(c1ccc(O)cc1)c1ccc(O)cc1,"inconclusive: 21.9 µM [activator, single point]",
NC(=O)n1c(O)c(C(=O)c2cccs2)c2cc(Cl)ccc21,"inconclusive: 23.9 µM [falling, partial curve, poor fit]",
CCCCCN=C(N)N/N=C/c1c[nH]c2ccc(OC)cc12,inconclusive: 26.8 µM,
O=C(Oc1cccc2cccnc12)c1ccccc1,"inconclusive: 2.39 µM [falling, full curve]",
CCCCOCCOCCOCc1cc2c(cc1CCC)OCO2,"inconclusive: 5.56 µM [falling, full curve, poor fit]",
C/C=C/C=N/NC(=O)c1ccncc1,inconclusive: 26.8 µM [single point],
CCCCCCCCCCCCCC[P+](CCCC)(CCCC)CCCC (tested in a mixture with another compound),inconclusive: 22 µM [full curve],
O=C1C=CC(=O)N1c1ccccc1,"inconclusive: 21.9 µM [falling, full curve]",
COC(=O)[C@H](Cc1ccccc1)NC(=O)[C@@H](N)CC(=O)O (H-Asp-Phe-OMe),inactive,
C[C@@H](NCCCc1cccc(C(F)(F)F)c1)c1cccc2ccccc12,inconclusive: 26.8 µM [single point],
CN1CCN(c2ccccc2/C=C2\SCCN(c3ccc(Cl)c(Cl)c3)C2=O)CC1,inconclusive: 54.9 µM,
